Some of the results follow. Sequences were assembled here from the parent chain. Values near 0.05 are background.
B1: TEV protease; numbered along this chain (parent)
chain: MGESLFKGPRDYNPISSSICHLTNESDGHTTSLYGIGFGPFIITNKHLFRRNNGTLVVQSLHGVFKVKDTTTLQQHLVDGRDMIIIRMPKDFPPFPQKLKFREPQREERICLVTTNFQTKSMSSMVSDTSCTFPSGDGIFWKHWIQTKDGQCGSPLVSTRDGFIVGIHSASNFTNTNNYFTSVPKNFMELLTNQEAQQWVSGWRLNADSVLWGGHKVFMVKPEEPFQPVKEATQL

Variants of: B1
Test: raw area under fraction-flipped curve 0-4 h after induction (AUC4h, not background-subtracted), DNA-recorder readout of cleavage of the substrate (dimensionless); higher = more cleavage of the substrate by the protease variant
Conditions: temperature: 34 °C; time window: 0-4 h after rhamnose induction
Procedure: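 In vivo DNA recorder in E. coli TOP10(DE3) ΔrhaA at 34 °C. Each TEVp single-site mutant (parent TEVp 0) is paired with a single-site variant of the 7-mer TEVs (canonical ENLYFQ|S). The substrate sits between flexible linkers in a Bxb1-sfGFP-TEVs-SsrA fusion, so cleavage stabilises Bxb1 and speeds flipping of a recombination array, read by NGS. The value is the raw area under the fraction-flipped curve over 0-4 h after rhamnose induction (AUC4h), with ≥20 reads per time point. It is not background-subtracted; inactive controls average about 0.047.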
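Further: Bxb1 expression induced with 0.2% (w/v) L-rhamnose at OD600 near 0.5, cultures sampled hourly, flipped fraction per protease–substrate barcode pair counted by paired-end Illumina sequencing.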

## MGESLFKGPRDYNPISSSICHLTNESDGHTTSLYGIGFGPFIITNKHLFRRNNGTLVVQSLHGVFKVKDTTTLQQHLVDGRDMIIIRMPKDFPPFPQKLKFREPQREERICLVTTNFQTKSMSSMVSDTSCTFPSGDGIFWHHWIQTKDGQCGSPLVSTRDGFIVGIHSASNFTNTNNYFTSVPKNFMELLTNQEAQQWVSGWRLNADSVLWGGHKVFMVKPEEPFQPVKEATQL [K142H]
  area with substrate ENLYCQS: 0.109
  area with substrate ENLYDQS: 0.0665
  area with substrate ENLYEQS: 0.0647
  area with substrate ENLYGQS: 0.0594
  area with substrate ENLYHQS: 0.0822
  area with substrate ENLYIQS: 0.13
  area with substrate ENLYKQS: 0.0606
  area with substrate ENLYLQS: 0.115
  area with substrate ENLYMQS: 0.0865
  area with substrate ENLYNQS: 0.0723
  area with substrate ENLYPQS: 0.0751
  area with substrate ENLYQQS: 0.043
  area with substrate ENLYRQS: 0.0614
  area with substrate ENLYSQS: 0.0769
  area with substrate ENLYTQS: 0.079
  area with substrate ENLYVQS: 0.133
  area with substrate ENLYWQS: 0.0731

## MGESLFKGPRDYNPISSSICHLTNESDGHTTSLYGIGFGPFIITNKHLFRRNNGTLVVQSLHGVFKVKDTTTLQQHLVDGRDMIIIRMPKDFPPFPQKLKFREPQREERICLVTTNFQTKSMSSMVSDTSCTFPSGDGIFWKHWIQTKDGQCGSPLVSTRDGFIVGIHSASNFTNTNNYFTSVPKNFMELLTNQEAQQDVSGWRLNADSVLWGGHKVFMVKPEEPFQPVKEATQL [W199D]
  area with substrate ENLYCQS: 0.0671
  area with substrate ENLYEQS: 0.0549
  area with substrate ENLYGQS: 0.0354
  area with substrate ENLYHQS: 0.0591
  area with substrate ENLYKQS: 0.0825
  area with substrate ENLYLQS: 0.0513
  area with substrate ENLYMQS: 0.0558
  area with substrate ENLYNQS: 0.061
  area with substrate ENLYQQS: 0.0688
  area with substrate ENLYRQS: 0.0726
  area with substrate ENLYSQS: 0.0779
  area with substrate ENLYTQS: 0.0548
  area with substrate ENLYVQS: 0.0579
  area with substrate ENLYWQS: 0.0731

## MGESLFKGPRDYNPISSSICHLTNESDGHTTSLYGIGFGPFIITNKHLFRRNNGTLVVQSLHGVFKVKDTTTLQQHLVDGRDMIIIRMPKDFPPFPQKLKFREPAREERICLVTTNFQTKSMSSMVSDTSCTFPSGDGIFWKHWIQTKDGQCGSPLVSTRDGFIVGIHSASNFTNTNNYFTSVPKNFMELLTNQEAQQWVSGWRLNADSVLWGGHKVFMVKPEEPFQPVKEATQL [Q105A]
  area with substrate ENLYCQS: 0.0805
  area with substrate ENLYDQS: 0.0625
  area with substrate ENLYEQS: 0.0809
  area with substrate ENLYGQS: 0.0581
  area with substrate ENLYHQS: 0.0579
  area with substrate ENLYKQS: 0.06
  area with substrate ENLYLQS: 0.0703
  area with substrate ENLYMQS: 0.0863
  area with substrate ENLYNQS: 0.0791
  area with substrate ENLYPQS: 0.0696
  area with substrate ENLYQQS: 0.0623
  area with substrate ENLYSQS: 0.0702
  area with substrate ENLYTQS: 0.0871
  area with substrate ENLYVQS: 0.117
  area with substrate ENLYYQS: 0.0704

## MGESLFKGPRDYNPISSSICHLTNESDGHTTSLYGIGFGPFIITNKHLFRRNNGTLVVQSLHGVFKVKDTTTLQQHLVDGRDMIIIRMPKDFPPFPQKLKFREPQREERICLVTTNFQTKSMSSMVSDTSCTFPSGDGYFWKHWIQTKDGQCGSPLVSTRDGFIVGIHSASNFTNTNNYFTSVPKNFMELLTNQEAQQWVSGWRLNADSVLWGGHKVFMVKPEEPFQPVKEATQL [I139Y]
  area with substrate ENLYCQS: 0.0914
  area with substrate ENLYDQS: 0.0692
  area with substrate ENLYGQS: 0.0518
  area with substrate ENLYHQS: 0.0633
  area with substrate ENLYIQS: 0.0747
  area with substrate ENLYKQS: 0.0745
  area with substrate ENLYLQS: 0.0842
  area with substrate ENLYMQS: 0.067
  area with substrate ENLYNQS: 0.0643
  area with substrate ENLYPQS: 0.0806
  area with substrate ENLYSQS: 0.0714
  area with substrate ENLYTQS: 0.0231
  area with substrate ENLYVQS: 0.105
  area with substrate ENLYWQS: 0.0794

## MGESLFKGPRDYNPISSSICHLTNESDGHTTSLYGIGFGPFIITNKHLFRRNNGTLVVQSLHGVFKVKDTTTLQQHLVDGRDMIIIRMPKDFPPFPQKLKFREPQREERICLVTTNFQTKSLSSMVSDTSCTFPSGDGIFWKHWIQTKDGQCGSPLVSTRDGFIVGIHSASNFTNTNNYFTSVPKNFMELLTNQEAQQWVSGWRLNADSVLWGGHKVFMVKPEEPFQPVKEATQL [M122L]
  area with substrate ENLYCQS: 0.0928
  area with substrate ENLYDQS: 0.0673
  area with substrate ENLYEQS: 0.0771
  area with substrate ENLYGQS: 0.0519
  area with substrate ENLYHQS: 0.0594
  area with substrate ENLYIQS: 0.133
  area with substrate ENLYKQS: 0.0561
  area with substrate ENLYMQS: 0.0726
  area with substrate ENLYNQS: 0.079
  area with substrate ENLYPQS: 0.0694
  area with substrate ENLYSQS: 0.0768
  area with substrate ENLYTQS: 0.0727

## MGESLFKGPRDYNPISSSICHLTNESDGHTTSLYGIGFGPFIITNKHLFRRNNGTLVVQSLHGVFKVKDTTTLQQHLVDGDDMIIIRMPKDFPPFPQKLKFREPQREERICLVTTNFQTKSMSSMVSDTSCTFPSGDGIFWKHWIQTKDGQCGSPLVSTRDGFIVGIHSASNFTNTNNYFTSVPKNFMELLTNQEAQQWVSGWRLNADSVLWGGHKVFMVKPEEPFQPVKEATQL [R81D]
  area with substrate ENLYCQS: 0.0554
  area with substrate ENLYDQS: 0.057
  area with substrate ENLYGQS: 0.0605
  area with substrate ENLYHQS: 0.0662
  area with substrate ENLYIQS: 0.0703
  area with substrate ENLYMQS: 0.0573
  area with substrate ENLYPQS: 0.0688
  area with substrate ENLYQQS: 0.0442
  area with substrate ENLYRQS: 0.0642
  area with substrate ENLYSQS: 0.0598
  area with substrate ENLYWQS: 0.0658
  area with substrate ENLYYQS: 0.005

## MGESLFKGPRDYNPISSSICHLTNESDGHTTSLYGIGFGPFIITNKHLFRRNNGTLVVQSLHGVFKVKDTTTLQQHLVDGRDMIIIRMPKDFPPFPQKLKFREPQREERICLVTTNFQTKSMSSMVSDTSCTFPSGDGIFWKHWIQTKDGQCGSPLVSTRDGFIVGIHSASNFTNTNNQFTSVPKNFMELLTNQEAQQWVSGWRLNADSVLWGGHKVFMVKPEEPFQPVKEATQL [Y179Q]
  area with substrate ENLYCQS: 0.0623
  area with substrate ENLYDQS: 0.0511
  area with substrate ENLYEQS: 0.0549
  area with substrate ENLYGQS: 0.0607
  area with substrate ENLYHQS: 0.0692
  area with substrate ENLYIQS: 0.0604
  area with substrate ENLYKQS: 0.0414
  area with substrate ENLYMQS: 0.0578
  area with substrate ENLYNQS: 0.0637
  area with substrate ENLYPQS: 0.0666
  area with substrate ENLYQQS: 0.0551
  area with substrate ENLYRQS: 0.0592
  area with substrate ENLYSQS: 0.057
  area with substrate ENLYVQS: 0.0569
  area with substrate ENLYWQS: 0.0588
  area with substrate ENLYYQS: 0.0528

## MGESLFKGPRDYNPISSSICHLTNESDGHTTSLYGIGFGPFIITNQHLFRRNNGTLVVQSLHGVFKVKDTTTLQQHLVDGRDMIIIRMPKDFPPFPQKLKFREPQREERICLVTTNFQTKSMSSMVSDTSCTFPSGDGIFWKHWIQTKDGQCGSPLVSTRDGFIVGIHSASNFTNTNNYFTSVPKNFMELLTNQEAQQWVSGWRLNADSVLWGGHKVFMVKPEEPFQPVKEATQL [K46Q]
  area with substrate ENLYCQS: 0.121
  area with substrate ENLYDQS: 0.0729
  area with substrate ENLYEQS: 0.0889
  area with substrate ENLYGQS: 0.064
  area with substrate ENLYHQS: 0.0592
  area with substrate ENLYLQS: 0.104
  area with substrate ENLYMQS: 0.0733
  area with substrate ENLYNQS: 0.049
  area with substrate ENLYPQS: 0.0827
  area with substrate ENLYRQS: 0.0656

## MGESLFKGPRDYNPISSSICHLTNESDGHTTSLYGIGFGPFIITNKHLFRRNNGTLVVQSLHGVFKVKDTTTLQQHLVDGRDMIIIRMPKDFPPFPQKLKFREPQREERICLVTTNFQTKSMSSMVSDTSCTFPSGDGIFWKHWIQTKDGQCGSPLVSTRDGFIVGIHSASNFTNTNNYFTSVPFNFMELLTNQEAQQWVSGWRLNADSVLWGGHKVFMVKPEEPFQPVKEATQL [K185F]
  area with substrate ENLYCQS: 0.0871
  area with substrate ENLYDQS: 0.0589
  area with substrate ENLYEQS: 0.0708
  area with substrate ENLYGQS: 0.0709
  area with substrate ENLYHQS: 0.0705
  area with substrate ENLYKQS: 0.0749
  area with substrate ENLYLQS: 0.0805
  area with substrate ENLYMQS: 0.0629
  area with substrate ENLYNQS: 0.0752
  area with substrate ENLYQQS: 0.0684
  area with substrate ENLYRQS: 0.0701
  area with substrate ENLYSQS: 0.0918
  area with substrate ENLYTQS: 0.0924
  area with substrate ENLYWQS: 0.0859
  area with substrate ENLYYQS: 0.0672

Reference: the supplement of paper PMC12217912
